The name of at least one read-out is uncertain.
Tests used:
ddY male mouse [1] = assay: Cycloheximide-induced amnesia, step-down passive avoidance; type: in vivo; conditions: median response latency of 10 mice
ddY male mouse [2] = assay: Electroconvulsive shock (ECS)-induced amnesia, step-through passive avoidance task; type: in vivo; conditions: median response latency of 10 mice
[3] = dosage 3 mg/Kg intraperitoneally

For `CN(C)CCOCC(O)c1ccc2c(c1)CCC2` (centres unmarked) [compound 252], the Antiamnesic activity (ddY male mouse [1]; dosage 30 mg/Kg orally) was “+++ (+++ : 151-300 seconds)” and the Antiamnesic activity (ddY male mouse [2]; [3]) was “+++ (+++ : 151-300 seconds)”.

`Cc1ccc2cc(C(O)COCCN(C)C)ccc2c1` (centres unmarked) [compound 235] was tested, and the Antiamnesic activity (ddY male mouse [1]; dosage 3 mg/Kg orally) was “+++ (+++ : 151-300 seconds)” and the Antiamnesic activity (ddY male mouse [2]; dosage 10 mg/Kg intraperitoneally) was “++ (++ : 101-150 seconds)”.

In the case of `CC(C)NCCOCC(O)c1ccc2ccccc2c1` (centres unmarked) [compound 266], the Antiamnesic activity (ddY male mouse [1]; dosage 30 mg/Kg orally) is reported as “+ (+ : 61-100 seconds)” and the Antiamnesic activity (ddY male mouse [2]; [3]) is reported as “++ (++ : 101-150 seconds)”.

For `Cc1cccc(C(O)COC2CCCN(Cc3ccccc3)C2)c1` (centres unmarked) [compound 115], the Antiamnesic activity (ddY male mouse [1]; dosage 3 mg/Kg orally) was “+++ (+++ : 151-300 seconds)” and the Antiamnesic activity (ddY male mouse [2]; [3]) was “++ (++ : 101-150 seconds)”.

`CN(C)CCOCC(O)c1ccc(C(C)(C)C)cc1` (centres unmarked) [compound 19] was tested, and the Antiamnesic activity (ddY male mouse [2]; [3]) was “+ (+ : 61-100 seconds)”.

For `OCC1CCCN1CCOCC(O)c1ccccc1` (centres unmarked) [compound 159], the Antiamnesic activity (ddY male mouse [2]; [3]) was “+ (+ : 61-100 seconds)”.

In the case of `OC(COCCC1CCN(Cc2ccccc2)CC1)c1ccc(Oc2ccccc2)cc1` (centres unmarked) [compound 78], the Antiamnesic activity (ddY male mouse [2]; [3]) is reported as “++ (++ : 101-150 seconds)”.
